Assay results: the supplement of paper PMC10126150
Sequences with one replicate were seen in a single cluster, so their values are uncertain.

System: ATP
Test: switch fluorescence ratio, 500 uM ATP over buffer (Cy3 cluster intensity, sum of 5 cycles each) (fold (ratio)); higher = stronger signal-on switching upon ATP binding; sequences stand for … in TCGTCGGCAGCGTCAGATGTGTATAAGAGACAGTTTTTTTTTTTTTTTTTTTTTTTTT…TC
Conditions: aptamer strand: ATP DNA aptamer (quencher-CACCTGGGGGAGTATTGCGGAGGAAGG + anchor), 100 nM annealed; ATP concentration: 500 uM; one replicate
How it was run: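 Imaging in selection buffer was followed by imaging after 15 min with 500 uM ATP at 22 °C, for Cy3-labelled switching-strand clusters annealed to 100 nM quencher-labelled ATP aptamer on a modified Illumina MiSeq flow-cell. Five of these buffer/ATP cycles ran, separated by NaOH stripping and re-annealing. The fluorescence ratio per cluster is summed target-cycle over summed buffer-cycle Cy3 intensity, averaged per switch-domain sequence; clusters outside 100-1000 RFU were removed.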
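Also: ATP exposure 15 min at 22 °C before imaging.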

ATCCTAGGTG was tested, and the switch fluorescence ratio was 1.17.

CCAAGTCG was tested, and the switch fluorescence ratio was 1.03.

With TTTCTGTGA the switch fluorescence ratio was 1.

In the case of AGGGGACTTA, the switch fluorescence ratio is reported as 0.996.

With GAGCGAGCAA the switch fluorescence ratio was 1.4.

For TAAAGATGAC, the switch fluorescence ratio was 1.07.

TAGCTAGCAC showed a switch fluorescence ratio of 1.07.

TAGTACTTAT gave a switch fluorescence ratio of 1.03.

Sequence GGGTAGTCGA has a switch fluorescence ratio of 1.05.

GGAGCTTGTA was tested, and the switch fluorescence ratio was 0.907.

Work on CTGGTACCGG yielded a switch fluorescence ratio of 1.03.

Work on TGGACCTCAA yielded a switch fluorescence ratio of 1.

Sequence AAGCAGGG has a switch fluorescence ratio of 1.

In the case of CTAATGCTCG, the switch fluorescence ratio is reported as 1.06.

For ATATAGTCA, the switch fluorescence ratio was 0.987.

Sequence AGGGTCAAGT has a switch fluorescence ratio of 0.998.

TGTATGCGCT gave a switch fluorescence ratio of 1.01.

TCCTTCGGCC was tested, and the switch fluorescence ratio was 1.99.

Sequence TAATTTTACA has a switch fluorescence ratio of 1.01.

Sequence GATACTGGTA has a switch fluorescence ratio of 1.07.

Sequence TGAGGTTGCG has a switch fluorescence ratio of 1.05.

CATGGTGCAA gave a switch fluorescence ratio of 1.16.

GATTCTCTCA gave a switch fluorescence ratio of 0.965.

In the case of GGAGCGGAG, the switch fluorescence ratio is reported as 1.03.

With TCACTATAGA the switch fluorescence ratio was 1.09.

Work on AAATAATACA yielded a switch fluorescence ratio of 0.966.

Sequence GGGCGAGGAA has a switch fluorescence ratio of 1.02.

Sequence ATGACATGTT has a switch fluorescence ratio of 0.98.

Sequence TTCACGGAAT has a switch fluorescence ratio of 1.15.

TGTCACAATA was tested, and the switch fluorescence ratio was 1.01.

Sequence CTACCTCCCC has a switch fluorescence ratio of 1.49.

TGTTGCGACA was tested, and the switch fluorescence ratio was 1.

In the case of ACAAAATCGC, the switch fluorescence ratio is reported as 1.07.

For TTTTGATG, the switch fluorescence ratio was 1.04.

Sequence AAGGTGTCTA has a switch fluorescence ratio of 0.961.

CATTATATTT gave a switch fluorescence ratio of 1.05.

In the case of ACAGTACGG, the switch fluorescence ratio is reported as 1.5.

In the case of ACGGTCCTAT, the switch fluorescence ratio is reported as 1.01.

CGTAGTCTGA was tested, and the switch fluorescence ratio was 1.01.

CATACTTTGT showed a switch fluorescence ratio of 1.01.

ATTAACTACG gave a switch fluorescence ratio of 1.08.

With AGGCCTTTAC the switch fluorescence ratio was 1.06.

ACGAGCGGCT gave a switch fluorescence ratio of 1.08.

With GGTTTGGCCG the switch fluorescence ratio was 1.21.

Work on TTAGTTGTAC yielded a switch fluorescence ratio of 1.06.

AGCGTTTAAG gave a switch fluorescence ratio of 1.01.

With GCAATCCTGA the switch fluorescence ratio was 1.08.

GACTGGTAGA gave a switch fluorescence ratio of 0.978.

GCATGGCGTA gave a switch fluorescence ratio of 0.984.

For ATGGAGCGTC, the switch fluorescence ratio was 1.03.

With GATAGTTCTT the switch fluorescence ratio was 1.06.

With CTGTTTTACG the switch fluorescence ratio was 1.

ACGTAGTTAA was tested, and the switch fluorescence ratio was 1.03.

GAAAGAGGT gave a switch fluorescence ratio of 0.968.

With GTTACCCACA the switch fluorescence ratio was 1.45.

With CTTTACGACC the switch fluorescence ratio was 1.3.

In the case of GGATTTTACA, the switch fluorescence ratio is reported as 0.988.

AAGGAGGCGG showed a switch fluorescence ratio of 1.04.

In the case of CGATGGCTGT, the switch fluorescence ratio is reported as 1.04.

CTTGTACAAC was tested, and the switch fluorescence ratio was 1.

With GGCAATTGGT the switch fluorescence ratio was 1.

For CCAGGTCGGG, the switch fluorescence ratio was 1.11.

GTTGTTCTC gave a switch fluorescence ratio of 1.01.

TATCTATTGA showed a switch fluorescence ratio of 1.04.

With AGGTAAGGCG the switch fluorescence ratio was 0.974.

With TCCTTTAGAC the switch fluorescence ratio was 1.09.

With AGGTAGGAAA the switch fluorescence ratio was 0.967.

TCTAGGGCTA showed a switch fluorescence ratio of 1.01.

For CCGGCACGTA, the switch fluorescence ratio was 1.08.

With CTGTCCTGAA the switch fluorescence ratio was 1.

In the case of CATTTCGTTC, the switch fluorescence ratio is reported as 0.945.

In the case of ACCTGGCTAC, the switch fluorescence ratio is reported as 1.77.

For CTAAGTTGCC, the switch fluorescence ratio was 0.928.

Sequence CGTGAGGCTG has a switch fluorescence ratio of 0.948.

AGATATGGGA showed a switch fluorescence ratio of 0.968.

In the case of GAAGAACGG, the switch fluorescence ratio is reported as 0.994.

Work on ATTATCGAGC yielded a switch fluorescence ratio of 0.983.

With CATCAGTGTT the switch fluorescence ratio was 0.985.

With GCACTGTTCT the switch fluorescence ratio was 0.995.

Sequence TGAGGTTAGC has a switch fluorescence ratio of 1.

In the case of TTCGTGTCGT, the switch fluorescence ratio is reported as 1.02.

With TTGTGTGATG the switch fluorescence ratio was 0.967.

With AGCACAATGG the switch fluorescence ratio was 1.05.

In the case of CACAACGGCC, the switch fluorescence ratio is reported as 1.02.

TTGGAATATC showed a switch fluorescence ratio of 1.09.
